{
  "source": "the supplement of paper PMC8728848",
  "experiment_in_all_cases": "glycan array binding signal (z-score within array); higher = stronger binding",
  "details_in_all_cases": "glycan notation: IUPAC condensed, linker removed",
  "key": {"Fuc(a1-2)Gal": {"molecular_target": "Fuc(a1-2)Gal", "procedure,_shortened": "(§1)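 The binding signal is a Z-score computed within each array. Data were drawn from 3228 arrays in the Consortium for Functional Glycomics database, restricted to those with a known protein sequence. Scores were averaged over arrays of the same protein sequence at different concentrations or buffers, and over linkers, and negative values can be taken as non-binding.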"}, "[1]": {"molecular_target": "Fuc(a1-2)Gal(b1-4)[Fuc(a1-3)]GlcNAc", "procedure,_shortened": "as §1"}, "[2]": {"molecular_target": "Fuc(a1-2)[Gal(a1-3)]Gal(b1-3)GlcNAc", "procedure,_shortened": "as §1"}, "[3]": {"molecular_target": "Fuc(a1-2)[Gal(a1-3)]Gal(b1-3)GlcNAc(b1-2)Man(a1-3)[Fuc(a1-2)[Gal(a1-3)]Gal(b1-3)GlcNAc(b1-2)Man(a1-6)]Man(b1-4)GlcNAc(b1-4)GlcNAc", "procedure,_shortened": "as §1"}, "[4]": {"molecular_target": "Fuc(a1-2)[Gal(a1-3)]Gal(b1-4)Glc", "procedure,_shortened": "as §1"}, "[5]": {"molecular_target": "Fuc(a1-2)[Gal(a1-3)]Gal(b1-4)GlcNAc", "procedure,_shortened": "as §1"}, "[6]": {"molecular_target": "Fuc(a1-2)[Gal(a1-3)]Gal(b1-4)GlcNAc(b1-2)Man(a1-3)[Fuc(a1-2)[Gal(a1-3)]Gal(b1-4)GlcNAc(b1-2)Man(a1-6)]Man(b1-4)GlcNAc(b1-4)GlcNAc", "procedure,_shortened": "as §1"}, "[7]": {"molecular_target": "Fuc(a1-2)[GalNAc(a1-3)]Gal(b1-3)GlcNAc(b1-2)Man(a1-3)[Fuc(a1-2)[GalNAc(a1-3)]Gal(b1-3)GlcNAc(b1-2)Man(a1-6)]Man(b1-4)GlcNAc(b1-4)GlcNAc", "procedure,_shortened": "as §1"}, "[8]": {"molecular_target": "Fuc(a1-2)[GalNAc(a1-3)]Gal(b1-4)GlcNAc(b1-2)Man(a1-3)[Fuc(a1-2)[GalNAc(a1-3)]Gal(b1-4)GlcNAc(b1-2)Man(a1-6)]Man(b1-4)GlcNAc(b1-4)GlcNAc", "procedure,_shortened": "as §1"}, "[9]": {"molecular_target": "Fuc(a1-2)[GalNAc(a1-3)]Gal(b1-4)GlcNAc(b1-3)Gal(b1-4)GlcNAc", "procedure,_shortened": "as §1"}, "[10]": {"molecular_target": "Fuc(a1-3)[Gal(b1-4)]GlcNAc(b1-2)Man(a1-3)[Fuc(a1-3)[Gal(b1-4)]GlcNAc(b1-2)Man(a1-6)]Man(b1-4)GlcNAc(b1-4)[Fuc(a1-6)]GlcNAc", "procedure,_shortened": "as §1"}, "[11]": {"molecular_target": "Fuc(a1-3)[Gal(b1-4)]GlcNAc(b1-3)Gal(b1-3)[Fuc(a1-4)]GlcNAc", "procedure,_shortened": "as §1"}, "[12]": {"molecular_target": "Fuc(a1-3)[Gal(b1-4)]GlcNAc(b1-3)GalNAc", "procedure,_shortened": "as §1"}, "Gal(a1-3)Gal": {"molecular_target": "Gal(a1-3)Gal", "procedure,_shortened": "as §1"}, "[13]": {"molecular_target": "Gal(a1-3)Gal(b1-4)GlcNAc(b1-6)GalNAc", "procedure,_shortened": "as §1"}, "Gal(b1-3)Gal(b1-4)GlcNAc": {"molecular_target": "Gal(b1-3)Gal(b1-4)GlcNAc", "procedure,_shortened": "as §1"}, "[14]": {"molecular_target": "Gal(b1-3)GlcNAc(b1-2)Man(a1-3)[GlcNAc(b1-4)][Gal(b1-3)GlcNAc(b1-2)Man(a1-6)]Man(b1-4)GlcNAc(b1-4)GlcNAc", "procedure,_shortened": "as §1"}, "[15]": {"molecular_target": "Gal(b1-3)GlcNAc(b1-6)GalNAc", "procedure,_shortened": "as §1"}, "[16]": {"molecular_target": "Gal(b1-3)[Fuc(a1-4)]GlcNAc", "procedure,_shortened": "as §1"}, "[17]": {"molecular_target": "Gal(b1-3)[Neu5Ac(a2-6)]GlcNAc(b1-6)Gal(b1-4)Glc", "procedure,_shortened": "as §1"}, "[18]": {"molecular_target": "Gal(b1-4)GlcNAc(b1-2)[Gal(b1-4)GlcNAc(b1-4)]Man(a1-3)[GlcNAc(b1-4)][Gal(b1-4)GlcNAc(b1-2)[Gal(b1-4)GlcNAc(b1-6)]Man(a1-6)]Man(b1-4)GlcNAc(b1-4)[Fuc(a1-6)]GlcNAc", "procedure,_shortened": "as §1"}, "Gal3S(b1-3)GlcNAc": {"molecular_target": "Gal3S(b1-3)GlcNAc", "procedure,_shortened": "as §1"}, "Gal3S(b1-4)Glc6S": {"molecular_target": "Gal3S(b1-4)Glc6S", "procedure,_shortened": "as §1"}, "Gal3S(b1-4)GlcNAc6S": {"molecular_target": "Gal3S(b1-4)GlcNAc6S", "procedure,_shortened": "as §1"}, "[19]": {"molecular_target": "GlcNAc(a1-3)Gal(b1-4)GlcNAc", "procedure,_shortened": "as §1"}, "[20]": {"molecular_target": "GlcNAc(a1-4)Gal(b1-4)GlcNAc(b1-3)Gal(b1-4)GlcNAc(b1-3)Gal(b1-4)GlcNAc", "procedure,_shortened": "as §1"}, "[21]": {"molecular_target": "GlcNAc(b1-2)[GlcNAc(b1-4)]Man(a1-3)[GlcNAc(b1-4)][GlcNAc(b1-2)[GlcNAc(b1-6)]Man(a1-6)]Man(b1-4)GlcNAc(b1-4)GlcNAc", "procedure,_shortened": "as §1"}, "[22]": {"molecular_target": "GlcNAc(b1-3)[GlcNAc(b1-6)]Gal(b1-4)GlcNAc", "procedure,_shortened": "as §1"}, "[23]": {"molecular_target": "Man(a1-2)Man(a1-6)[Man(a1-3)]Man(a1-6)[Man(a1-2)Man(a1-2)Man(a1-3)]Man", "procedure,_shortened": "as §1"}, "Man(a1-6)Man": {"molecular_target": "Man(a1-6)Man", "procedure,_shortened": "as §1"}, "[24]": {"molecular_target": "Neu5Ac(a2-3)Gal(b1-3)GalNAc", "procedure,_shortened": "as §1"}, "[25]": {"molecular_target": "Neu5Ac(a2-3)Gal(b1-3)[Fuc(a1-4)]GlcNAc", "procedure,_shortened": "as §1"}, "[26]": {"molecular_target": "Neu5Ac(a2-3)Gal(b1-3)[Neu5Ac(a2-6)]GalNAc", "procedure,_shortened": "as §1"}, "Neu5Ac(a2-3)Gal(b1-4)Glc": {"molecular_target": "Neu5Ac(a2-3)Gal(b1-4)Glc", "procedure,_shortened": "as §1"}, "[27]": {"molecular_target": "Neu5Ac(a2-3)Gal(b1-4)GlcNAc6S", "procedure,_shortened": "as §1"}, "[28]": {"molecular_target": "Neu5Ac(a2-3)Gal(b1-4)[Fuc(a1-3)]GlcNAc(b1-3)Gal(b1-4)[Fuc(a1-3)]GlcNAc(b1-3)Gal(b1-4)[Fuc(a1-3)]GlcNAc", "procedure,_shortened": "as §1"}, "[29]": {"molecular_target": "Neu5Ac(a2-6)Gal(b1-4)GlcNAc(b1-2)Man(a1-6)[Man(a1-3)]Man(b1-4)GlcNAc(b1-4)GlcNAc", "procedure,_shortened": "as §1"}, "Neu5Ac(a2-6)GalNAc": {"molecular_target": "Neu5Ac(a2-6)GalNAc", "procedure,_shortened": "as §1"}, "[30]": {"molecular_target": "Neu5Ac(a2-8)Neu5Ac(a2-8)Neu5Ac(a2-8)Neu5Ac(a2-3)[GalNAc(b1-4)]Gal(b1-4)Glc", "procedure,_shortened": "as §1"}, "[31]": {"molecular_target": "Neu5Ac(b2-6)Gal(b1-4)GlcNAc", "procedure,_shortened": "as §1"}, "Neu5Ac(b2-6)GalNAc": {"molecular_target": "Neu5Ac(b2-6)GalNAc", "procedure,_shortened": "as §1"}},
  "note": "The sample as a whole holds a higher share of the strongest signals than the screen did.",
  "data": [
    {"binder": "CGL2 (Coprinopsis cinerea), Q9P4R8 (protein) MLYHLFVNNQVKLQNDFKPESVAAIRSSAFNSKGGTTVFNFLSAGENILLHISIRPGENVIVFNSRLKNGAWGPEERIPYAEKFRPPNPSITVIDHGDRFQIRFDYGTSIYYNKRIKENAAAIAYNAENSLFSSPVTVDVHGLLPPLPPA", "values": [
      {"measurement": "glycan array binding signal (z-score)", "setting": "Fuc(a1-2)Gal", "value": -0.528},
      {"measurement": "glycan array binding signal (z-score)", "setting": "[1]", "value": -0.469},
      {"measurement": "glycan array binding signal (z-score)", "setting": "[2]", "value": 4.22},
      {"measurement": "glycan array binding signal (z-score)", "setting": "[3]", "value": 3.22},
      {"measurement": "glycan array binding signal (z-score)", "setting": "[4]", "value": 2.41},
      {"measurement": "glycan array binding signal (z-score)", "setting": "[5]", "value": 3},
      {"measurement": "glycan array binding signal (z-score)", "setting": "[6]", "value": 5.26},
      {"measurement": "glycan array binding signal (z-score)", "setting": "[7]", "value": 0.795},
      {"measurement": "glycan array binding signal (z-score)", "setting": "[8]", "value": 5.56},
      {"measurement": "glycan array binding signal (z-score)", "setting": "[9]", "value": 2.74},
      {"measurement": "glycan array binding signal (z-score)", "setting": "[10]", "value": -0.333},
      {"measurement": "glycan array binding signal (z-score)", "setting": "[11]", "value": -0.252},
      {"measurement": "glycan array binding signal (z-score)", "setting": "[12]", "value": -0.433},
      {"measurement": "glycan array binding signal (z-score)", "setting": "Gal(a1-3)Gal", "value": -0.412},
      {"measurement": "glycan array binding signal (z-score)", "setting": "[13]", "value": 0.257},
      {"measurement": "glycan array binding signal (z-score)", "setting": "Gal(b1-3)Gal(b1-4)GlcNAc", "value": 0.266},
      {"measurement": "glycan array binding signal (z-score)", "setting": "[14]", "value": 0.245},
      {"measurement": "glycan array binding signal (z-score)", "setting": "[15]", "value": -0.207},
      {"measurement": "glycan array binding signal (z-score)", "setting": "[16]", "value": -0.509},
      {"measurement": "glycan array binding signal (z-score)", "setting": "[17]", "value": 0.096},
      {"measurement": "glycan array binding signal (z-score)", "setting": "[18]", "value": 0.518},
      {"measurement": "glycan array binding signal (z-score)", "setting": "Gal3S(b1-3)GlcNAc", "value": 3.11},
      {"measurement": "glycan array binding signal (z-score)", "setting": "Gal3S(b1-4)Glc6S", "value": 3.25},
      {"measurement": "glycan array binding signal (z-score)", "setting": "Gal3S(b1-4)GlcNAc6S", "value": 4.79},
      {"measurement": "glycan array binding signal (z-score)", "setting": "[19]", "value": -0.136},
      {"measurement": "glycan array binding signal (z-score)", "setting": "[20]", "value": 0.313},
      {"measurement": "glycan array binding signal (z-score)", "setting": "[21]", "value": -0.483},
      {"measurement": "glycan array binding signal (z-score)", "setting": "[22]", "value": -0.438},
      {"measurement": "glycan array binding signal (z-score)", "setting": "[23]", "value": -0.393},
      {"measurement": "glycan array binding signal (z-score)", "setting": "Man(a1-6)Man", "value": -0.349},
      {"measurement": "glycan array binding signal (z-score)", "setting": "[24]", "value": 0.271},
      {"measurement": "glycan array binding signal (z-score)", "setting": "[25]", "value": -0.453},
      {"measurement": "glycan array binding signal (z-score)", "setting": "[26]", "value": -0.007},
      {"measurement": "glycan array binding signal (z-score)", "setting": "Neu5Ac(a2-3)Gal(b1-4)Glc", "value": 0.303},
      {"measurement": "glycan array binding signal (z-score)", "setting": "[27]", "value": 0.999},
      {"measurement": "glycan array binding signal (z-score)", "setting": "[28]", "value": -0.451},
      {"measurement": "glycan array binding signal (z-score)", "setting": "[29]", "value": -0.397},
      {"measurement": "glycan array binding signal (z-score)", "setting": "Neu5Ac(a2-6)GalNAc", "value": -0.495},
      {"measurement": "glycan array binding signal (z-score)", "setting": "[30]", "value": -0.476},
      {"measurement": "glycan array binding signal (z-score)", "setting": "[31]", "value": -0.441},
      {"measurement": "glycan array binding signal (z-score)", "setting": "Neu5Ac(b2-6)GalNAc", "value": -0.369}
    ]}
  ]
}
